Source: PubChem BioAssay AID894 (National Center for Advancing Translational Sciences (NCATS), 2007)
Among all 150,000 compounds or so, about 6,500 (4.3%) were called active. The shares of active, inactive and inconclusive entries below differ from those in the screen. The call rests on the fitted dose curve; in most records, active means well fitted inhibition curve with a large enough effect (not every such curve was filed as active); inconclusive means small, poorly fitted or top-dose-only effect, or another doubt; inactive means no such curve, though single readings can be large or run the other way. Potencies of inconclusive entries are left out as doubtful fits.

What follows are compounds tested against 15-hydroxyprostaglandin dehydrogenase [NAD(+)] (Homo sapiens) (UniProt P15428) (assay: qHTS Assay for Inhibitors of HPGD (15-Hydroxyprostaglandin Dehydrogenase)). Settings: purified HPGD, NADH fluorescence kinetic, PGE2 substrate; activity change, negative = inhibition: hits give low values.
In short: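 20 nM HPGD preincubated 15 min at room temperature with compound in 50 mM Tris-HCl pH 8, 0.01% Tween 20. Started with 1 mM NAD+ and 30 uM prostaglandin E2; NADH fluorescence (360/450 nm) read 5 times over 30-s intervals, last minus first.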
On the % scale 0 is the no-effect control and ±100 the full control effect; potency means the concentration at half of the fitted maximal effect; tags describe the fitted curve by direction and shape.

Sequence of UniProt P15428 (P15428 whole entry, looked up): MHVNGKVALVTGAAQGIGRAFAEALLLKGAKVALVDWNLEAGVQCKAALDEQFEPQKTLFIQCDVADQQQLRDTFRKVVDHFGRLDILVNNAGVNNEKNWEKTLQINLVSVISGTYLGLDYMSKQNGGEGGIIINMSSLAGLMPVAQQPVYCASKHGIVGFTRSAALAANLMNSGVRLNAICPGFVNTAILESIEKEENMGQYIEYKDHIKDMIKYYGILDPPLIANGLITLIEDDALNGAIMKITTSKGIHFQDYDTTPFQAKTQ

Structure (SMILES) | Potency | activity change, negative = inhibition
C#CCSc1nsc(SCC#C)c1C#N | inconclusive [inhibitor, single point] | 
COCCN(C(C)=O)c1nnc(-c2cnccn2)s1 | inconclusive [inhibitor, partial curve] | 
CCOc1ccc(C(=O)N2CCCC2)cc1OC | active: 28.2 µM | 
O=C(NC1CCCCC1)c1ccc(CNc2c(N3CCOCC3)c(=O)c2=O)cc1 | active: 14.1 µM | 
CCN1CCN(Cc2c(O)ccc3c(=O)c(-c4ccc(OC)c(OC)c4)c(C(F)(F)F)oc23)CC1 | inconclusive [inhibitor, partial curve] | 
Cc1ccc([N+](=O)[O-])cc1NC(=S)NC(=O)C(C)(C)C | active: 7.08 µM | 
Cc1nc(NC(=O)c2ccccc2)nc2cc3c(cc12)OCO3 | inconclusive [inhibitor, partial curve, poor fit] | 
CC(C)(C)c1cc(C(F)(F)F)c(C#N)c(=O)[nH]1 | inconclusive [inhibitor, partial curve] | 
CCOC(=O)C1=C(C)Nc2sc(C(=O)c3ccc(Br)cc3)c(N)c2C1c1ccc(C(=O)OC)cc1 (centres undefined) |  | inactive: -7.23%
O=S(=O)(Nc1nc2ccccc2nc1Nc1cccc(S(=O)(=O)N2CCCCC2)c1)c1ccccc1 | inconclusive [inhibitor, partial curve] | 
COc1ccc(Cn2nnnc2C(c2cc3cc(C)ccc3[nH]c2=O)N2CCOCC2)cc1 (centres undefined) | inconclusive [inhibitor, partial curve] | 
CC1=CC(C)(C)Nc2ccc(OC(=O)CN3C(=O)c4cccc5cccc(c45)C3=O)cc21 |  | inactive: -20.7%
N#Cc1ccc(-c2ccc(Cl)cc2)nc1Oc1ccc(F)cc1 | inconclusive [inhibitor, single point] | 
CCC(C)c1ccccc1NC(=O)COC(=O)CCc1cc(OC)c(OC)c(OC)c1 (centres undefined) |  | inactive: -3.27%
CC[C@@H]1C(c2ccc(F)cc2)=NN(c2ccc(Br)cc2)[C@H]1C(=O)N1CCOC1=O | inconclusive [inhibitor, partial curve] | 
O=C(Nc1nnc(SCc2ccc(F)cc2)s1)C1Cc2ccccc2CN1C(=O)c1ccco1 (centres undefined) | inconclusive [inhibitor, single point] | 
Cc1cc(C(=O)OCc2nnc(-c3ccccc3)o2)c(C)n1-c1ccccc1 | inconclusive [inhibitor, single point] | 
Cc1ccc(C)c(S(=O)(=O)N2C(=S)NC(=O)C2CC(C)C)c1 (centres undefined) |  | inactive: -0.138%
O=c1cc(Cl)c(-c2ccccc2)n[nH]1 | active: 28.2 µM | 
CSc1cccc(-n2cc(-c3ccc4c(c3)OCO4)[nH]c2=O)c1 |  | inactive: -22.8%
CCOC(=S)SCC(=O)N1CCc2ccccc2C1C1C(=O)CCCC1=O (centres undefined) |  | inactive: -5.36%
N#Cc1c(=O)c2nc(NCc3ccccc3)ncc2n2ccccc12 | inconclusive [inhibitor, partial curve] | 

Structure (SMILES) | Potency | activity change, negative = inhibition
CCn1c(=O)cc(SCC(=O)N2CCC(C)CC2)c2ccccc21 | active: 5.01 µM | 
CCCc1ccc(-c2c(C)sc(NC(=O)c3ccnn3C)c2C#N)cc1 | inconclusive [inhibitor, single point] | 
CCN1C(=O)c2cccc3c(S(=O)(=O)N(C(=O)c4ccncc4)c4ccc(OC)cc4)ccc1c23 | inconclusive [inhibitor, partial curve] | 
COc1cc(C(=O)NC(=S)Nc2ccc([N+](=O)[O-])cc2C)cc(OC)c1OC |  | inactive: -6.73%
Cc1ccc(-c2nn(-c3ccccc3)cc2/C=N/NC(=O)c2ccc(Br)o2)cc1 | inconclusive [inhibitor, partial curve] | 
CC1(C)Cc2c(sc3ncn4nc(CCC(=O)O)c(=O)nc4c23)CO1 | inconclusive [inhibitor, partial curve] | 
O=C(OCC1OC2OC3(CCCCC3)OC2C2OC3(CCCCC3)OC12)c1ccccc1 (centres undefined) |  | inactive: -4.52%
CC1(C)NC(=O)N(CC(=O)OCC(=O)Nc2cc(S(=O)(=O)N3CCCCCC3)ccc2Cl)C1=O |  | inactive: -7.88%
Cc1ncc(CO)c(/C=N/NC(=O)c2ccc(Br)cc2)c1O | inconclusive [inhibitor, partial curve, poor fit] | 
Nc1ncnc2nc(SCc3ccc(Cl)cc3Cl)[nH]c12 | inconclusive [inhibitor, partial curve] | 
c1cncc(CNc2ncncc2-c2ccc3c(c2)OCO3)c1 | inconclusive [inhibitor, partial curve] | 
c1ccc(NCC2OCc3ccccc3CO2)cc1 |  | inactive: -9.27%
O=C(Nc1ccc(Cl)cc1)N(Cc1cccnc1)Cc1ccco1 |  | inactive: -4.31%
CCOc1ccc(-c2cc(C(=O)NN3CCN(C)CC3)c3cc(Cl)ccc3n2)cc1 | inconclusive [inhibitor, partial curve] | 
O=C(Cc1cccs1)Nc1cccc(-c2nc3cc4ccccc4cc3[nH]2)c1 | inconclusive [inhibitor, full curve] | 
Cc1ccc(NC(=O)c2ccccc2-c2ccccc2C(=O)O)cc1 |  | inactive: -8.4%
CN1CCN(c2cc(-c3ccc(N(C)C)cc3)ncn2)CC1 | inconclusive [inhibitor, partial curve] | 
CCN(CC)CCN(Cc1cc2cc3c(cc2[nH]c1=O)OCCO3)C(=O)NC1CCCCC1 | inconclusive [inhibitor, partial curve] | 
CCn1c(SCC(=O)c2ccc(C)cc2)nnc1-c1ccncc1 | active: 31.6 µM | 
O=C(NC(=S)NNS(=O)(=O)c1ccccc1)c1ccc([N+](=O)[O-])cc1 | inconclusive [inhibitor, partial curve] | 
Cc1ccc(S(=O)(=O)NC(C(=O)Oc2ccc3c(C)c(Cl)c(=O)oc3c2)c2ccccc2)cc1 (centres undefined) | inconclusive [inhibitor, partial curve] | 
Cc1ccc(CSc2sc(C(=O)c3ccccc3)c(N)c2C#N)cc1 | inconclusive [inhibitor, partial curve, poor fit] | 
